The campaign covered roughly 340,000 compounds. About 6,900 (2%) were called active. No stated cut-off is given here; in the data, active means inhibition above about 30%; inactive means below that, where a call was filed. The entries are a selection whose mix differs from that of the whole data set. The source gives no active or inactive call for entries shown without one.

The assay deals with D(2) dopamine receptor (Homo sapiens) (UniProt P14416). Description: HTS Assay for Allosteric Antagonists of the Human D2 Dopamine Receptor: Primary Screen for Antagonists. Further: 0% is about no effect. Particulars: HEK293 TREx D2 cells, calcium flux, dopamine EC80; at 10 µM; stronger effect = higher value. In a few lines: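 In this primary screen, negative modulation is detected by tracking calcium flux after an EC80 dopamine challenge in inducible HEK293 T-REx D2 cells preexposed to test compound for 180 s.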
Sequence of UniProt P14416 (P14416 whole entry, looked up): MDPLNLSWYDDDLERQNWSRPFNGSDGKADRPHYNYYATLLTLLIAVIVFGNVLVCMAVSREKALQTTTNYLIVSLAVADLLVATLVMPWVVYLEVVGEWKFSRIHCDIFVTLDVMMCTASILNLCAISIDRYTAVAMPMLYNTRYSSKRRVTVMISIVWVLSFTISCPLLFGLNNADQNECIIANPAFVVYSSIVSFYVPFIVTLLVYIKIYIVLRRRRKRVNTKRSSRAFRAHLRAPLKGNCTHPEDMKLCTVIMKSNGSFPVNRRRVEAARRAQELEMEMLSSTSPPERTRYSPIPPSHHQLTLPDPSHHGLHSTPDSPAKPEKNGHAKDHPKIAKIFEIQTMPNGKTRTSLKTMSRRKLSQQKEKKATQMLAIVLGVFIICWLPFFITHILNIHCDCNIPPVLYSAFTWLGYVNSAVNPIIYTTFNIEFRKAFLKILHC
In general terms: A change in cytosolic calcium serves as a functional read-out for many receptors and channels.
Regarding `COc1ccccc1N1CCN(c2ccc3cc(S(=O)(=O)N4CCCCC4)ccc3n2)CC1`, the inhibition is -4.13%.

`CCOC(=O)CC(NC(=O)c1cc2cc(Cl)ccc2oc1=O)c1ccc(C)cc1` (stereo not given): the inhibition worked out at 16.7%. Regarding `CCOc1ccc(-n2nc(CO)c(C(=O)NCc3ccc(Cl)cc3)n2)cc1`, the inhibition was 16%. On to `Cc1ccc(-c2nnc(SCCOc3ccccc3)o2)cc1`, for which the inhibition is -12.3%. Take `CC1CCN(C(=O)CSc2c3c(nc4cc(Cl)ccc24)CCCC3)CC1`: the inhibition was found to be 7.54%. Turning to `Brc1ccc(-c2ccc(CNCCSc3nnnn3-c3ccccc3)o2)cc1`, the inhibition turned out to be 3.72%. With `CCOc1ccc(-c2nc3c(c(SCC(=O)N4CCCCC4)n2)Cc2cc(C)ccc2O3)cc1` the figure was -2.34%. As to `COc1ccc(CCNC(=O)CN(c2ccc(C)cc2)S(=O)(=O)c2ccc(OC)cc2)cc1`, the inhibition was -10.5%. As for `COc1ccc(N2CCN(CCCNC(=O)Nc3ccccc3Cl)CC2)cc1`, the inhibition amounted to 16.7%.

Turning to `CCOc1ccc(CN2C(=O)c3ccccc3Sc3ccc(C(=O)N4CCN(C)CC4)cc32)cc1`, the inhibition turned out to be 1.38%. As to `Cc1ccc(-c2nc3ccc([N+](=O)[O-])cc3[nH]2)cc1`, the inhibition is active: 44.5%. For `CCC(Sc1nc2cc(OC)c(OC)cc2c(=O)n1Cc1ccc(Cl)cc1)C(=O)NCCOC` (stereo not given), the inhibition was 11.8%. As to `Cc1cc(NC(=O)c2cccnc2)cc(-c2nc3cc(Cl)ccc3o2)c1O`, the inhibition is 1.34%. As to `CCCN(CCC)CCCNC(=O)C(NS(=O)(=O)c1ccc2c(c1)CCC(=O)N2)c1ccccc1` (stereo not given), the inhibition is active: 44.7%. `CN(C)S(=O)(=O)c1ccc2c(c1)c(=O)c(C(=O)N1CCN(c3cccc(Cl)c3)CC1)cn2C`: the inhibition is 1.9%. As to `O=S1(=O)c2ccccc2N(Cc2ccc(Cl)cc2F)c2ccccc21`, the inhibition came to 7.2%.

For the molecule `COc1ccc(OC)c(NC(=O)CSC2=Nc3ccccc3C3=NC(CCC(=O)NCc4ccco4)C(=O)N23)c1` (stereo not given), the inhibition was -8.83%.

For `CCC(=O)Nc1nnc(S(=O)(=O)N(C)Cc2ccc(Cl)cc2)s1`, the inhibition was -15.3%.

Take `CCOC(=O)c1ccc(NC(=O)CN(c2ccc(C)cc2)S(=O)(=O)c2ccc(OC)cc2)cc1`: the inhibition was found to be 19.5%. Next, `CCOc1ccccc1NC(=O)CSC1=Nc2ccccc2C2=NC(CC(=O)NC3CCCCC3)C(=O)N12` (stereo not given): -0.263%; `COc1ccc(N2CCN(C(CNS(=O)(=O)c3c(C)cc(C)cc3C)c3ccco3)CC2)cc1` (stereo not given): 2.27%.

As for `O=C(Cn1c(=O)n(Cc2ccc(F)cc2)c(=O)c2sc3ccccc3c21)NCc1ccccc1Cl`, the inhibition is 1.94%. Regarding `N#Cc1c(C(F)(F)F)cc(-c2cccs2)nc1SCC(=O)Nc1ccc(Cl)cc1`, the inhibition was -8.08%. Turning to `Cc1ccn2c(Nc3ccc4c(c3)OCO4)c(-c3ccco3)nc2c1`, the inhibition is -15.7%. Take `Cc1cccc(N2CCN(S(=O)(=O)c3c(C)[nH]c(=O)[nH]c3=O)CC2)c1C`: the inhibition is -24.3%. With `O=C(CCc1nc2ccccc2c(=O)[nH]1)Nc1cc(Cl)ccc1N1CCCCC1` the figure was active: 42.9%; with `COc1cc(C(=O)Nc2ccc(OCc3cc(=O)n4ccc(C)cc4n3)cc2)cc(OC)c1OC`, 26%; with `COc1cc(Nc2ncnc3onc(-c4ccc(Cl)cc4)c23)cc(OC)c1`, 4.29%. As for `CCCn1c2ccccc2c2cnn(CC(=O)N(CCCOC(C)C)Cc3ccco3)c(=O)c21`, the inhibition worked out at 18.1%. For the molecule `Cc1ccc(-n2c(=O)c3c(C)c(C)sc3n(CC(=O)c3ccc(Cl)cc3)c2=O)cc1C`, the inhibition was -3.21%. Next, `Cc1cc(NC(=O)CCC(=O)N(Cc2ccccc2)C2(C(=O)NC3CCCCC3)CCCC2)no1`: active: 44.5%. Regarding `N#Cc1ccccc1CSc1nnc(-c2ccccc2)o1`, the inhibition turned out to be 6.2%.

On to `O=C(NCCc1c[nH]c2ccccc12)Nc1ccccc1C(F)(F)F`, for which the inhibition came to 2.59%.

Regarding `O=C(CSc1nnc2scc(-c3ccccc3)n12)c1ccc2c(c1)OCCO2`, the inhibition is active: 30.9%.

Consider `COC(=O)c1cc(NC(=O)Cn2ncc3c2-c2ccccc2OC3)cc(C(=O)OC)c1`, for which the inhibition is -7.1%.

As for `COc1cccc(CN2CCN(C3CCN(c4cccc(C)c4C)CC3)CC2CCO)c1` (stereo not given), the inhibition is active: 73%. As for `Cc1cccc(CS(=O)(=O)CC2Nc3ccc(C(=O)NCc4ccccc4Cl)cc3NC2=O)c1` (stereo not given), the inhibition is 6.07%. Consider `COc1ccc(-c2noc(-c3ccc(NC4CCCCC4)c([N+](=O)[O-])c3)n2)cc1OC`, for which the inhibition turned out to be 4.52%.

Consider `CCc1cccc(C)c1NC(=O)Nc1csc2c1CCCC2`, for which the inhibition is 3.08%.

With `Cc1ccc(C)c(NC(=O)CSc2nncn3c2cc2sccc23)c1`, the inhibition was -14.2%. Next, `COc1ccc2sc(N(Cc3cccnc3)C(=O)c3ccco3)nc2c1`: -18.4%; `CCCCC/C=C/C1=CC(=O)C[C@H](c2ccc3c(c2)OCO3)C1`: active: 30.8%.

As to `O=C1CN(C(=O)c2ccccc2)C(c2ccc(F)cc2)c2cc(Br)ccc2N1` (stereo not given), the inhibition is 9.91%.

For the molecule `CCCNC(=O)C1CCN(c2cc(C)nc3c(-c4ccc(OC)c(OC)c4)c(C)nn23)CC1`, the inhibition amounted to 1.66%. For `COc1ccc(CN2C(=O)N(c3ccc(F)cc3)C(=O)C2CC(=O)Nc2ccccc2)cc1` (stereo not given), the inhibition was -4.12%. With `CCn1c(=O)cc(OCC(=O)NCc2ccc(F)cc2Cl)c2ccccc21` the figure was 9.71%; with `CCOCCCNC(=O)c1c(NC(=O)c2cc(=O)c3cc(C)c(C)cc3o2)sc2c1CCC2`, 17.2%. Next, `CCOC(=O)c1ccc(N2C(=O)c3[nH]nc(-c4ccc(OC)cc4)c3C2c2ccc(C)cc2)cc1` (stereo not given): 14.6%; `Cc1ccc(CCNc2nc3ccccc3c3nc(-c4ccccc4)nn23)cc1`: -11.4%. In the case of `Cc1oc(-c2ccc(Cl)cc2)nc1CSc1nnc(C)n2c1cc1sccc12`, the inhibition worked out at 17.5%. With `Cc1ccc(S(=O)(=O)c2cn(C)c3cc(N4CCCC4)c(F)cc3c2=O)c(C)c1` the figure was -11.5%; with `CCOc1cc(C(=O)Nc2c(NC)c3ccccc3oc2=O)cc(OCC)c1OCC`, -4%; with `CCc1ccc(NC(=O)c2cnn(-c3c(C)cccc3C)c2C2CCNCC2)cc1`, 15.3%. As for `CC1(C)C(c2ccccc2)=[N+]([O-])C2(CCCCC2=O)N1O` (stereo not given), the inhibition is active: 33.4%. With `COC(=O)c1ccccc1NC(=O)CN1C(=O)COc2ccccc21` the figure was 8.97%; with `Cc1ncc(CO)c2c1Oc1nc(-c3ccccc3F)nc(SCC(=O)N3CCCCC3)c1C2`, -17.6%; with `COCc1ccc(-c2c(-c3ccccc3OC)sc3cc4c(cc23)OCO4)cc1`, active: 39.9%. Regarding `COc1ccc(NC(=O)CSc2nc3c(c(=O)[nH]2)CN(Cc2ccccc2)CC3)cc1Cl`, the inhibition was 11.4%. `CCc1nc2ccc(C(=O)NCCCN3CCN(c4ccccc4F)CC3)cc2nc1CC`: the inhibition is active: 88.4%.

As to `CCS(=O)(=O)c1ncc(Cl)c(C(=O)N(Cc2ccccc2)Cc2ccco2)n1`, the inhibition is 0.401%.

Broadly, the inhibition is the drop in the measured response relative to a control, in per cent.

(Values after PubChem BioAssay AID485344 (National Center for Advancing Translational Sciences (NCATS), 2010).)
